# Assay results as given in PubChem BioAssay AID588342 (National Center for Advancing Translational Sciences (NCATS), 2011).
# In all, about 360,000 compounds went through this assay and about 25,000 (6.9%) were called active. This list was built around the results that the source calls inconclusive (neither active nor inactive); the mix of calls is not that of the screen. The call rests on the fitted dose curve; in most records, active means well fitted inhibition curve with a large enough effect; inconclusive means small, poorly fitted or top-dose-only effect; inactive means flat fitted curve, though single readings scatter. A potency beside an inconclusive call is a rough fit, not a confirmed value.
# Molecular target: Luciferin 4-monooxygenase (Photinus pyralis) (UniProt P08659)
# Assay: qHTS profiling assay for firefly luciferase inhibitor/activator using purifed enzyme and Km concentrations of substrates (counterscreen for miR-21 project); further: nearly all actives have a fitted effect of over 55% in size
# Conditions: purified FLuc, luminescence inhibition; series mostly up to 57.5 µM
# Method in brief: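 Purified P. pyralis luciferase, 10 nM final, with Km-level 10 uM D-luciferin and 10 uM ATP in 50 mM Tris acetate pH 7.5, 10 mM Mg acetate, 0.01% Tween-20, 0.05% BSA; 6-point qHTS titration about 60 µM downward; luminescence read.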
# Potency means the concentration at half of the fitted maximal effect; tags describe the fitted curve by direction and shape.
# UniProt P08659, sequence (P08659 whole entry, looked up): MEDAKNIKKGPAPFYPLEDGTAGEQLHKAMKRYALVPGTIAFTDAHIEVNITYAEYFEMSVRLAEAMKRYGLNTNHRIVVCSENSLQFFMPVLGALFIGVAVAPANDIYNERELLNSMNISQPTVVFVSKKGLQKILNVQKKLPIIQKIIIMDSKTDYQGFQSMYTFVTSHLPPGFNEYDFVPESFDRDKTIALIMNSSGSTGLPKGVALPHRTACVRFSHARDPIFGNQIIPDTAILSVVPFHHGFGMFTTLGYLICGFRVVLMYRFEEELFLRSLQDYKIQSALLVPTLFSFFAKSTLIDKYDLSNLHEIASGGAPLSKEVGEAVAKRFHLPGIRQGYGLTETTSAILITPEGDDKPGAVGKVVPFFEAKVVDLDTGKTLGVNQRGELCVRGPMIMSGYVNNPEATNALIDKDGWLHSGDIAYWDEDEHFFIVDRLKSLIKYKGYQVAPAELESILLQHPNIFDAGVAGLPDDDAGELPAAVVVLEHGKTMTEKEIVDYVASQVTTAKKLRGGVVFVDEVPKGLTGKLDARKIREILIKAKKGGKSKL
row,SMILES,Potency
1,COCCNC(=O)CSc1nc(-c2ccccc2)[nH]c1-c1ccc(C)cc1,inactive
2,CC(=O)Nc1ccc(C(=O)Nc2nc(-c3ccccn3)cs2)cc1,"inconclusive: 19 µM [inhibitor, partial curve]"
3,COc1cc2c(cc1NC(=O)C(C)OC(=O)C1CC(=O)N(Cc3ccco3)C1)oc1ccccc12 (stereo not drawn),"inconclusive: 26.9 µM [inhibitor, single point]"
4,C/C(=N/NC(=O)c1sc(=S)n(C)c1C)c1ccccc1,inactive
5,N#CCn1c(CN2CCCC2)nc2ccccc2c1=O,inactive
6,Cc1cc(C)cc(NC(=O)C(c2ccccc2)N2CCN(CC(=O)NC3CC3)CC2)c1 (stereo not drawn),inactive
7,Cn1cncc1C#Cc1ccc2cc(CCO)oc(=O)c2c1,inactive
8,CCc1ccc(-n2c(=S)sc3c(=O)n(-c4ccccc4OC)c(=S)[nH]c32)cc1,"inconclusive: 21.3 µM [inhibitor, partial curve]"
9,Cc1ccccc1CNC(=O)c1ccc2ccccc2n1,"inconclusive: 42.6 µM [inhibitor, partial curve, poor fit]"
10,CCCn1c(SCC(=O)c2cc(C)n(C3CC3)c2C)n[nH]c1=O,"inconclusive: 21.3 µM [inhibitor, partial curve, poor fit]"
11,Cc1cc(NS(=O)(=O)c2ccc(NC(=O)c3cc4ccccc4o3)cc2)nc(C)n1,"inconclusive: 21.3 µM [inhibitor, single point]"
12,COc1ccc(CNC(=O)c2cc3ccccc3oc2=O)cc1,"inconclusive: 37.9 µM [inhibitor, single point]"
13,CC(C(=O)O)N1C(=O)C2C3CC(C2C1=O)C1C(c2ccccc2)c2sc(=O)[nH]c2SC31 (stereo not drawn),inactive
14,COC(=O)c1cc(CSc2ncnc3sccc23)oc1C,"inconclusive: 37.9 µM [inhibitor, partial curve, poor fit]"
15,CN(C)c1ccc(NC(=O)c2cccc(N3C(=O)CCC3=O)c2)cc1,"inconclusive: 19 µM [inhibitor, partial curve, poor fit]"
16,NC(=O)c1ccccc1NC(=O)COc1ccc(Cl)cc1,active: 16.9 µM
17,NNC(=O)c1sc(-c2ccccc2)cc1N,"inconclusive: 30.1 µM [inhibitor, single point]"
18,Cc1cc(SCC(=O)c2cccs2)nc2c(C)cccc12,"inconclusive: 15.1 µM [inhibitor, partial curve]"
19,Cc1ccc(OCC(=O)N2CCc3ccccc3C2)c(Br)c1,"inconclusive: 30.1 µM [inhibitor, single point]"
20,CCOC(=O)c1ccc(-c2ccc(/C=N/NC(=O)CN(c3ccccc3Cl)S(C)(=O)=O)o2)cc1,"inconclusive: 23.9 µM [inhibitor, partial curve, poor fit]"
21,Cc1ccc(-c2nc3ccccn3c2C=O)cc1,active: 21.3 µM
22,CCCCNC(=O)/C=C1\Sc2ccccc2NC1=O,"inconclusive: 2.69 µM [inhibitor, full curve]"
23,CCc1ccc(NC(=O)Cn2c(=O)n(CCCC(=O)NCCc3ccc(OC)c(OC)c3)c(=O)c3ccccc32)cc1,inactive
24,COc1cc2ccccc2cc1C(=O)Nc1ccncc1,active: 12 µM

row,SMILES,Potency
1,COc1cc(NC(=O)c2ccc(Cl)cc2)c(Cl)cc1NC(=O)c1cccnc1,inactive
2,COc1ccc(/C=C2/C(=N)N3C(=NC2=O)Sc2cc(S(C)(=O)=O)ccc23)cc1OC,"inconclusive: 10.7 µM [inhibitor, partial curve]"
3,COc1cccc(/C=C/C(=O)c2ccc[nH]2)c1,active: 2.13 µM
4,C/C(=N\N=C(/N)SC1CC(=O)N(c2ccccc2)C1=O)c1cccs1 (stereo not drawn),"inconclusive: 26.9 µM [inhibitor, partial curve, poor fit]"
5,O=C(c1nnc(-c2ccccc2)o1)C1CC1,"inconclusive: 30.1 µM [inhibitor, single point]"
6,Cc1ccccc1NC(=O)CCn1nc(-c2ccccc2)c2ccccc2c1=O,inactive
7,COc1ccccc1NCC(=O)N/N=C/C=C/c1ccccc1,active: 26.9 µM
8,CN(C)c1ccc(/C=N/NC(=O)c2ccc(CN3CCOCC3)cc2)cc1Br,active: 19 µM
9,COc1ccc(OC)c(N=c2oc3cc(O)ccc3cc2C(N)=O)c1,active: 21.3 µM
10,COc1ccc(NC(=O)CSc2nc3ccc(OC)cc3[nH]2)cc1,"inconclusive: 30.1 µM [inhibitor, partial curve, poor fit]"
11,COC(=O)c1c(-c2cccs2)csc1NC(=O)c1ccc(C)cc1,active: 5.36 µM
12,O=C(Cn1c(-c2cccs2)cc2ccccc21)N1CCN(c2ccc(F)cc2)CC1,inactive
13,CCc1[nH]nc(C(=O)NC2CCCc3c2cnn3-c2cc(C)cc(C)c2)c1C (stereo not drawn),"inconclusive: 19 µM [inhibitor, partial curve]"
14,COc1ccc2oc(-c3ccc(NC(=O)c4ccc(Cl)cc4Cl)cc3)nc2c1,inactive
15,COc1ccc(CNC(=O)C(=O)Nc2cccc(C)c2C)cc1,inactive
16,O=C1/C(=C/c2ccccc2Cl)SC(=S)N1CCCC(=O)N(CCO)c1ccccc1,"inconclusive: 37.9 µM [inhibitor, partial curve, poor fit]"
17,CCCCNC(=O)c1onc(CSc2ccc(OC)cc2)c1C(=O)O,"inconclusive: 37.9 µM [inhibitor, partial curve, poor fit]"
18,COc1ccc(-c2csc(Nc3cc(C)ccn3)n2)cc1OC,active: 10.7 µM
19,O=C(CNC(=O)c1ccco1)OCc1c(F)cccc1Cl,active: 15.1 µM
20,COc1cc(N=c2ssnc2Cl)cc(OC)c1,"inconclusive: 37.9 µM [inhibitor, single point]"
21,Cc1cccc(NC(=O)N2CCN3CCCCC3C2)c1C (stereo not drawn),inactive
22,Nc1nc(-c2cccs2)c(CC(=O)O)s1,inactive
23,O=C(O)c1ccc(OCC(O)Cn2c3ccccc3c3ccccc32)cc1 (stereo not drawn),"inconclusive: 37.9 µM [inhibitor, partial curve, poor fit]"
24,COc1ccc(-c2nc(C)c(CCNS(=O)(=O)c3ccc(F)cc3)s2)cc1OC,"inconclusive: 37.9 µM [inhibitor, partial curve, poor fit]"
